Experimental data from PubChem BioAssay AID504845 (National Center for Advancing Translational Sciences (NCATS), 2011).
Out of some 390,000 compounds screened, about 150 (0.038%) were called active. Inconclusive results, whose numbers are uncertain, are shown with a selection of clear calls. Calls come from the whole dose curve; as a rule, active = well fitted inhibition curve with a large enough effect; inconclusive = small, poorly fitted or top-dose-only effect; inactive = no such curve, though single readings can be large or run the other way. Potencies beside an inconclusive call are fits to weak or partial responses and may not hold up.

Target: Regulator of G-protein signaling 4 (Homo sapiens) (UniProt P49798)
UniProt P49798, sequence (P49798 whole entry, looked up): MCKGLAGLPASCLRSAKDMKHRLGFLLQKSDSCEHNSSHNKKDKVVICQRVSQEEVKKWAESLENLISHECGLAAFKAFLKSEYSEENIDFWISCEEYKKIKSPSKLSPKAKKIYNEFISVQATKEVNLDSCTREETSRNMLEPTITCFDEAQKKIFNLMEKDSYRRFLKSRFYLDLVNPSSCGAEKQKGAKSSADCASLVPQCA
Assay: Inhibitors of Regulator of G Protein Signaling (RGS) 4: qHTS; note: nearly all actives have a fitted effect of over 75% in size
Conditions: Transcreener GDP fluorescence polarization, RGS4-accelerated GTP hydrolysis; series mostly up to 114 µM; activity change, negative = inhibition: at the top concentration
Procedure, shortened: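 MLSMR compounds (23 nl, pin-transferred) preincubated 10 min at room temperature with a 500nM (2x) first reagent, then RGS4 at 900nM (2x) plus Transcreener GDP mix added; fluorescence polarization (620/688 nm) read before and after 90 min at 30 °C.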
% is set by controls: 0 for no effect and ±100 for the full control effect; potency is the fitted concentration of half-maximal effect; tags give direction and shape of the fitted curve.

Structure (SMILES) | activity change, negative = inhibition | Potency
CCc1cccc(C)c1NC(=O)C(CC)n1ncn2c(cc3cc(C)ccc32)c1=O (configuration not stated) | inactive: -20.4% | –
CCc1nnc(N/N=C/c2ccccc2F)n1N | – | inconclusive: 17.8 µM [inhibitor, full curve, poor fit]
COCCN1C(=O)c2ccccc2C(C(=O)N2CCN(c3ccccn3)CC2)C1c1ccc(F)cc1 (configuration not stated) | inactive: -20.8% | –
CCCn1c2ccc(F)cc2c2nnc(SCCN3CCOCC3)nc21 | – | inconclusive: 79.4 µM [inhibitor, partial curve, poor fit]
Cc1[nH]nc2c1/C(=N\O)CC(C)(C)C2 | inactive: -30.7% | –
CCCN1CCc2c(sc(NC(=O)c3ccc(S(=O)(=O)N4CCN(C(=O)OCC)CC4)cc3)c2C(N)=O)C1 | – | inconclusive: 89.1 µM [inhibitor, single point]
Cc1cc(=O)n(CC(=O)Nc2cccc([N+](=O)[O-])c2)c(-n2nc(C)cc2C)n1 | – | inconclusive: 89.1 µM [inhibitor, single point]
S=c1[nH]cc(-c2ccccc2)n1-c1ccccc1 | – | inconclusive: 89.1 µM [inhibitor, partial curve, poor fit]
CCc1ccc(Nc2cc(C(=O)NCCCN(C)c3ccccc3)c3ccccc3n2)cc1 | – | inconclusive: 89.1 µM [inhibitor, single point]
CC(C)(C)c1cn(-c2ccc(F)cc2)c(=S)[nH]1 | – | inconclusive: 44.7 µM [inhibitor, partial curve, poor fit]
CCc1ccccc1OCCSc1nnc(-c2cc(OC)c(OC)c(OC)c2)o1 | inactive: 2.43% | –
CC(=O)N1c2ccc(Cl)cc2C2C=CCC2C1c1cccc2ccccc12 (configuration not stated) | inactive: -26.1% | –
COc1cc2c(cc1OC)CN(C(=O)c1cccc([N+](=O)[O-])c1)CC2 | – | inconclusive: 50.1 µM [inhibitor, partial curve, poor fit]
Cc1ccccc1CN1CCNC(=O)C1CC(=O)O (configuration not stated) | inactive: 0.339% | –
Cc1ccc(NC(=S)NNC(=S)Nc2cccc(C(F)(F)F)c2)cc1 | – | inconclusive: 79.4 µM [inhibitor, partial curve, poor fit]
N#Cc1cc2c([nH]c1=S)CCCCCC2 | – | inconclusive: 20 µM [inhibitor, full curve, poor fit]
CCN1C=C(Cc2ccc(F)cc2)C2=C(C1)C(c1ccc(F)cc1)C(C#N)=C(N)O2 (configuration not stated) | – | inconclusive: 89.1 µM [inhibitor, single point]
COCC1CCN(Cc2nc(-c3cccs3)no2)C1 (configuration not stated) | – | inconclusive: 89.1 µM [inhibitor, single point]
O=C(NCCCN1CCCC1=O)c1cc2c(s1)CCCCC2 | inactive: -13.3% | –
CCOC(=O)CSc1nn(C)c(=S)s1 | – | inconclusive: 89.1 µM [inhibitor, single point]
O=C(O)C1Nc2c(C(F)(F)F)ccc(Cl)c2C2C=CCC12 (configuration not stated) | – | inconclusive: 44.7 µM [inhibitor, partial curve, poor fit]
O=C(CSc1nnc(-c2ccco2)c(-c2ccco2)n1)Nc1ccccc1 | – | inconclusive: 50.1 µM [inhibitor, partial curve, poor fit]
CCC1CCCCN1Cc1nc2c(c(=O)n(C)c(=O)n2C)n1Cc1c(F)cccc1Cl (configuration not stated) | inactive: 30.1% | –

Structure (SMILES) | activity change, negative = inhibition | Potency
c1c2c(cc3sc(N4CCCCC4)nc13)OCO2 | inactive: -19.5% | –
COC(=O)C1=CO[C@@H](O)[C@@H]2C(CO)=CC[C@H]12 | inactive: -4.5% [at 56.9 µM] | –
Cc1cc(C)n(Cc2ccc(C(=O)N/N=C/c3ccc(-c4ccc([N+](=O)[O-])cc4)o3)o2)n1 | – | inconclusive: 35.5 µM [inhibitor, partial curve, poor fit]
NC(=S)N=Nc1ccc(NN=C(N)N)cc1 | – | inconclusive: 28.2 µM [inhibitor, full curve, poor fit]
Cc1cc(OCC(=O)N2CCN(c3ccc(F)cc3)CC2)c2c(C)cc(=O)oc2c1 | – | inconclusive: 89.1 µM [inhibitor, single point]
CCSC(=Nc1ccccc1)N1CCOCC1 | inactive: 12.9% | –
Cc1ccc(-n2c(=O)[nH]c3cc(C(=O)NC4CCN(Cc5ccccc5)CC4)ccc3c2=O)cc1 | inactive: -33.4% | –
Cc1ccc(-c2cn(-c3ccc(Cl)cc3)c(S(=O)(=O)CC(=O)Nc3ccccc3)n2)cc1 | – | inconclusive: 56.2 µM [inhibitor, partial curve, poor fit]
CC(C)C(C(=O)O)N1C(=O)/C(=C/C=C/c2ccco2)SC1=S (configuration not stated) | – | inconclusive: 50.1 µM [inhibitor, partial curve, poor fit]
CCOC(=O)C1=NOC(COc2ccccc2C=O)C1 (configuration not stated) | – | inconclusive: 70.8 µM [inhibitor, single point]
CC1=Nc2cc(C(=O)NC(C)C)ccc2Sc2ccc(C)cc21 | inactive: 11.4% | –
CCc1c(C)[nH]c2ccc(OC)cc2c1=S | – | inconclusive: 50.1 µM [inhibitor, partial curve, poor fit]
CCn1c(SCC(=O)NCc2ccc3c(c2)OCO3)nnc1-c1cccs1 | inactive: 26.6% | –
COc1cc(OC)cc(-c2sc3ccc(OC)cc3c2C#CC2(N)CCCCC2)c1 | inactive: -8.25% | –
Cn1c(SCC(=O)NC2CC2)nnc1-c1ccco1 | – | inconclusive: 89.1 µM [inhibitor, single point]
Cn1nc(C(=O)Nc2nc(-c3ccccn3)cs2)c2ccccc2c1=O | – | inconclusive: 100 µM [inhibitor, partial curve, poor fit]
CCCCC(CC)CN=C(N)NC(N)=NCCCCCCN=C(N)NC(N)=NCC(CC)CCCC (configuration not stated) | – | inconclusive: 39.8 µM [inhibitor, partial curve, poor fit]
O=C(CSc1nc2cc(S(=O)(=O)N3CCOCC3)ccc2o1)NC1CCCc2ccccc21 (configuration not stated) | – | inconclusive: 56.2 µM [inhibitor, partial curve, poor fit]
Cc1n[nH]c(=S)n(/N=C/c2ccccn2)c1=O | inactive: 6.29% | –
S=c1[nH]c2ccccc2c2ccccc12 | – | inconclusive: 31.6 µM [inhibitor, full curve, poor fit]
COc1cccc(NC(=O)c2ccc3nc(Cc4ccccc4)oc3c2)c1 | inactive: 1.92% | –
COc1ccc(-c2cc(C(=O)Nc3sc4c(c3C#N)CCCC4)no2)cc1OC | – | inconclusive: 39.8 µM [inhibitor, full curve, poor fit]
CC(C)(C)c1ccc(NC(=O)Nc2ccc(F)cc2)cc1 | – | inconclusive: 31.6 µM [inhibitor, full curve, poor fit]

Structure (SMILES) | activity change, negative = inhibition | Potency
Nc1ccccc1SCC(=O)Nc1cccc2ccccc12 | – | inconclusive: 89.1 µM [inhibitor, single point]
CC(C)N1CCN(S(=O)(=O)c2ccccc2)CC1 | inactive: -15% | –
COc1ccc(CN2C(=O)C(CC(C)C)Nc3ncnc(N4CCN(c5ccccn5)CC4)c32)cc1 (configuration not stated) | inactive: -22.5% | –
CC1=NN(c2ccc(C)cc2C)C(=O)C1C(c1ccccc1)C1C(=O)N(c2ccc(C)cc2C)N=C1C (configuration not stated) | – | inconclusive: 56.2 µM [inhibitor, partial curve, poor fit]
O=C(Nc1ccc2nc(-c3ccco3)c(-c3ccco3)nc2c1)N1CCCC1 | – | inconclusive: 70.8 µM [inhibitor, partial curve, poor fit]
Cc1nn(-c2ccccc2)c(OC(=O)C(C)(C)C)c1Sc1ccccc1 | – | inconclusive: 79.4 µM [inhibitor, partial curve, poor fit]
O=C1NC(=O)/C(=C\c2ccc(N3CCOCC3)o2)N1 | – | inconclusive: 50.1 µM [inhibitor, partial curve, poor fit]
Cc1ccc2c(c1)C(=O)C(=O)N2Cc1ccc(C(F)(F)F)cc1 | – | inconclusive: 50.1 µM [inhibitor, partial curve, poor fit]
Cc1ccc2nc(SCCC#N)nc(C)c2c1 | – | inconclusive: 79.4 µM [inhibitor, partial curve, poor fit]
Cc1cc([N+](=O)[O-])nn1CCCC(=O)Nc1sc2c(c1C(N)=O)CCC(C)C2 (configuration not stated) | – | inconclusive: 100 µM [inhibitor, single point]
N#Cc1ccc(C23CC4(C2)[C@H](CN(CC2CCCCC2)[C@@H]4c2ccccc2)C3c2ccccc2)cc1 (some centres not stated) | inactive: -5.62% | –
Cc1cccc(OCCN2C(=O)C(=O)c3cc(C)ccc32)c1 | – | inconclusive: 89.1 µM [inhibitor, single point]
CCc1sc(/C=C(/C#N)C(N)=S)cc1[N+](=O)[O-] | – | inconclusive: 56.2 µM [inhibitor, partial curve, poor fit]
COc1ccc(S(=O)(=O)N2CCCC2C(=O)Nc2nnc(-c3cccnc3)s2)cc1 (configuration not stated) | – | inconclusive: 17.8 µM [inhibitor, full curve, poor fit]
CC(NC(=O)/C(C#N)=C/c1ccc([N+](=O)[O-])o1)c1ccccc1 (configuration not stated) | – | inconclusive: 79.4 µM [inhibitor, partial curve, poor fit]
O=C(CS(=O)(=O)c1ccccc1)Nc1ccccc1Br | – | inconclusive: 79.4 µM [inhibitor, single point]
CC1=C(c2ccc(C)cc2)S(=O)(=O)N(Cc2ccc(C(=O)NCc3ccccc3F)cc2)C1=O | inactive: 23.7% | –
O=C(NCc1ccco1)c1cccc(NC(=O)c2ccco2)c1 | inactive: -14.2% | –
O=C1C=C(NCCc2cc(Br)c(O)c(Br)c2)C(=O)c2ncccc21 | – | inconclusive: 31.6 µM [inhibitor, partial curve, poor fit]
CCN1CCCC1CNC(=O)c1ccc2c(c1)NC(=O)/C(=C\c1ccc(OC)c(OC)c1)S2 (configuration not stated) | – | inconclusive: 79.4 µM [inhibitor, partial curve, poor fit]
Cc1ccc(-c2nc3ccccc3[nH]2)cc1NC(=O)c1sc2ccccc2c1Cl | – | inconclusive: 79.4 µM [inhibitor, partial curve, poor fit]
